Measured values from the supplement of paper PMC10126150.
Sequences with one replicate were seen in a single cluster, so their values are uncertain.

tested on: ATP; experiment: switch fluorescence ratio, 500 uM ATP over buffer (Cy3 cluster intensity, sum of 5 cycles each) (fold (ratio)); higher = stronger signal-on switching upon ATP binding; sequences stand for … in TCGTCGGCAGCGTCAGATGTGTATAAGAGACAGTTTTTTTTTTTTTTTTTTTTTTTTT…TC; details: aptamer strand: ATP DNA aptamer (quencher-CACCTGGGGGAGTATTGCGGAGGAAGG + anchor), 100 nM annealed; ATP concentration: 500 uM; one replicate
Procedure, shortened: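 The quencher-labelled ATP aptamer, at 100 nM, was annealed to Cy3-labelled switching-strand clusters on a modified Illumina MiSeq flow-cell. The clusters were imaged in selection buffer, then after 15 min with 500 uM ATP at 22 °C, and this buffer/ATP cycle ran five times with NaOH stripping and re-annealing between runs. Per-cluster fluorescence ratios, summed target-cycle over summed buffer-cycle Cy3 intensity, were averaged per switch-domain sequence. Clusters outside 100-1000 RFU were excluded.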
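Further: ATP exposure 15 min at 22 °C before imaging.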

Sequence | switch fluorescence ratio
CCTCTGTGCG | 1.01
CCTCTTTGGG | 0.993
CCTGACAGAC | 1.73
CCTGACATCC | 1.42
CCTGACATGT | 1.02
CCTGAGATGC | 1.39
CCTGATCTTC | 0.954
CCTGATGCTT | 1.03
CCTGATTGTA | 0.954
CCTGCATACA | 2.3
CCTGCATAGT | 1.33
CCTGCATCGA | 1.19
CCTGGCAGGC | 1.25
CCTGGCGCCG | 0.982
CCTGGGGC | 1.04
CCTGGGGCCC | 0.968
CCTGGGTGGA | 0.995
CCTGGTCACG | 0.982
CCTGGTCTCG | 0.994
CCTGGTTCTT | 1.03
CCTGTACCTT | 1.1
CCTGTAGAAT | 1.02
CCTGTATGGG | 1.05
CCTGTCCCGA | 1.02
CCTGTTGTTA | 0.989
CCTTAACAGT | 1.03

Sequence | switch fluorescence ratio
CCTTAGGAAG | 0.937
CCTTAGTCCT | 1.23
CCTTATACA | 1
CCTTATGATA | 0.904
CCTTATGGTT | 0.978
CCTTCAAGGA | 1
CCTTCACTTT | 1.37
CCTTCCGTGG | 1.5
CCTTCGGGCT | 1.24
CCTTCTTCTT | 1.02
CCTTGAATGT | 1.03
CCTTGACGCT | 1.22
CCTTGAGTAG | 1.05
CCTTGCAGTA | 4.91
CCTTGCATAG | 4.28
CCTTGCGCTC | 5.07
CCTTGCTAGT | 1.13
CCTTGTACTA | 1.03
CCTTGTGACT | 0.986
CCTTGTGTCG | 0.979
CCTTTATGTG | 1.01
CCTTTCACGT | 1.1
CCTTTGACCG | 1.09
CCTTTGGGGC | 0.995
CCTTTTAAC | 0.996
CCTTTTCATA | 1.04

Sequence | switch fluorescence ratio
CCTTTTCCTT | 1.01
CCTTTTGTCG | 0.974
CGAAAAAGAA | 1
CGAAACCCAT | 1
CGAAACTGGT | 1.11
CGAAATCTAG | 0.999
CGAAATGGA | 0.957
CGAAATTATA | 0.978
CGAACAGCAG | 1.15
CGAACATTAG | 1.03
CGAACTATTC | 1.06
CGAAGAGATC | 0.952
CGAAGATTCA | 0.989
CGAAGGACTA | 1.03
CGAAGGAGTA | 0.948
CGAAGGCAGC | 1.36
CGAAGGCTTT | 1.05
CGAAGGGAC | 1.06
CGAAGTAGGC | 1.38
CGAAGTCAAG | 1.52
CGAAGTCAGT | 1.09
CGAATCCGTG | 0.99
CGAATCGTGG | 0.974
CGAATCGTTC | 1
CGAATGATTT | 1.01
CGAATGCTCA | 1.11

Sequence | switch fluorescence ratio
CGAATTAAAG | 1.02
CGAATTAGGA | 0.949
CGAATTCGGT | 1.02
CGAATTCGTC | 0.977
CGAATTGTAC | 1.07
CGAATTTCTG | 1.01
CGACAGCG | 0.991
CGACAGGTGT | 4.19
CGACAGTGAA | 1.06
CGACATCACG | 1.4
CGACCCGGCG | 1.07
CGACCGCGCT | 1.28
CGACCTAAGA | 1.04
CGACCTAGTT | 1.01
CGACGATAAT | 1.76
CGACGATCAA | 2.12
CGACGCTTGG | 2.21
CGACGGGATG | 1.08
CGACGGGCTC | 1.86
CGACGGGTG | 1.1
CGACGTCGCA | 1.05
CGACGTTCTC | 1.57
CGACTAACTT | 1.11
CGACTAAGGA | 1.07
CGACTAATCG | 0.991
CGACTAT | 1.01

Sequence | switch fluorescence ratio
CGACTGGTTG | 0.991
CGACTTATCA | 0.958
CGACTTATTA | 1
CGACTTCGT | 1.04
CGAGAAAAGT | 0.996
CGAGAAATT | 0.986
CGAGAATGAT | 0.972
CGAGAATGCA | 0.995
CGAGACCGCG | 0.987
CGAGACTAAC | 1.1
CGAGACTAGC | 1.12
CGAGAGAGA | 0.976
CGAGAGTATG | 1.03
CGAGATAGTG | 0.935
CGAGATTCGG | 1.05
CGAGATTTTT | 0.948
CGAGCAATTT | 3.06
CGAGCACCAC | 2.17
CGAGCATTAA | 3.84
CGAGCCATGA | 1.02
CGAGCCTGTT | 0.966
CGAGGACAGC | 1.06
CGAGGGAATA | 3.67
CGAGGGCAAG | 1.33
CGAGGGCTGG | 0.965
CGAGGTCATG | 0.998

Sequence | switch fluorescence ratio
CGAGGTCTCC | 1
CGAGGTTGTT | 1.06
CGAGTAAGTC | 1.08
CGAGTACTCG | 0.95
CGAGTCATCA | 1.01
CGAGTCGGGC | 1.03
CGAGTCGTAT | 0.983
CGAGTGGGTC | 1.05
CGAGTTGGTT | 1
CGAGTTTAGT | 1.11
CGATAAGATT | 1.01
CGATAAGTGA | 0.995
CGATACACTT | 1.06
CGATATGGAT | 0.92
CGATCGATGG | 1.01
CGATCGGGCT | 0.991
CGATCGTTTC | 1.07
CGATGACCGG | 1.12
CGATGACTCT | 0.966
CGATGCACGT | 1.08
CGATGGAGTT | 0.965
CGATGGGGAT | 1.01
CGATGGTACA | 1.02
CGATGGTACT | 1.07
CGATTACTAT | 0.998
CGATTAGCAG | 1.05

Sequence | switch fluorescence ratio
CGATTAGGTT | 1.04
CGATTATGG | 0.983
CGATTCCCAG | 1.19
CGATTCGTG | 0.951
CGATTCTTGA | 1.01
CGATTGACCC | 1.08
CGATTGGACG | 1.16
CGATTTAACA | 0.942
CGATTTACCC | 1.04
CGATTTGATA | 0.999
CGATTTGTTG | 0.998
CGCAAAGCAT | 1.05
CGCACAAGGT | 1.1
CGCACAGGAT | 1.1
CGCACCAAGC | 1.17
CGCACCGTCG | 1.05
CGCACGTAG | 1.05
CGCAGACTTT | 1.23
CGCAGCAGGC | 2.5
CGCAGGCCGT | 0.971
CGCAGGTGTA | 1.71
CGCATAAG | 1.42
CGCATAATTA | 1.11
CGCATCGGTA | 1.03
CGCATCTGAT | 0.983
CGCATGGCAA | 1.23

Sequence | switch fluorescence ratio
CGCATTTGGG | 1.04
CGCCAAGTGC | 1.39
CGCCAATGGA | 1.08
CGCCAGACTG | 1.07
CGCCATTATT | 0.983
CGCCCAAGTT | 1.09
CGCCCACA | 1.8
CGCCCAGGTA | 2.9
CGCCCCCCGT | 1.7
CGCCCGCCT | 1.12
CGCCCGCTTC | 1.97
CGCCCGGCAT | 1.03
CGCCCGGTGT | 4.14
CGCCCGTGGC | 0.953
CGCCCTGAGG | 1.05
CGCCCTGGGC | 1.03
CGCCGCACTG | 2.84
CGCCGCGCGG | 0.962
CGCCGGCAGA | 0.993
